Source: PMC4336329 (PLoS ONE, 2015)
About 2,200 (0.71%) of roughly 310,000 compounds showed an effect of 50% or more. The effect is printed as a negative number. This is one part of the list.

biological target: human ether-à-go-go-related gene (hERG) potassium channel (human, UniProt Q12809); test: primary screen, population patch clamp on CHO cells stably expressing hERG
Sequence (Q12809 whole entry, looked up): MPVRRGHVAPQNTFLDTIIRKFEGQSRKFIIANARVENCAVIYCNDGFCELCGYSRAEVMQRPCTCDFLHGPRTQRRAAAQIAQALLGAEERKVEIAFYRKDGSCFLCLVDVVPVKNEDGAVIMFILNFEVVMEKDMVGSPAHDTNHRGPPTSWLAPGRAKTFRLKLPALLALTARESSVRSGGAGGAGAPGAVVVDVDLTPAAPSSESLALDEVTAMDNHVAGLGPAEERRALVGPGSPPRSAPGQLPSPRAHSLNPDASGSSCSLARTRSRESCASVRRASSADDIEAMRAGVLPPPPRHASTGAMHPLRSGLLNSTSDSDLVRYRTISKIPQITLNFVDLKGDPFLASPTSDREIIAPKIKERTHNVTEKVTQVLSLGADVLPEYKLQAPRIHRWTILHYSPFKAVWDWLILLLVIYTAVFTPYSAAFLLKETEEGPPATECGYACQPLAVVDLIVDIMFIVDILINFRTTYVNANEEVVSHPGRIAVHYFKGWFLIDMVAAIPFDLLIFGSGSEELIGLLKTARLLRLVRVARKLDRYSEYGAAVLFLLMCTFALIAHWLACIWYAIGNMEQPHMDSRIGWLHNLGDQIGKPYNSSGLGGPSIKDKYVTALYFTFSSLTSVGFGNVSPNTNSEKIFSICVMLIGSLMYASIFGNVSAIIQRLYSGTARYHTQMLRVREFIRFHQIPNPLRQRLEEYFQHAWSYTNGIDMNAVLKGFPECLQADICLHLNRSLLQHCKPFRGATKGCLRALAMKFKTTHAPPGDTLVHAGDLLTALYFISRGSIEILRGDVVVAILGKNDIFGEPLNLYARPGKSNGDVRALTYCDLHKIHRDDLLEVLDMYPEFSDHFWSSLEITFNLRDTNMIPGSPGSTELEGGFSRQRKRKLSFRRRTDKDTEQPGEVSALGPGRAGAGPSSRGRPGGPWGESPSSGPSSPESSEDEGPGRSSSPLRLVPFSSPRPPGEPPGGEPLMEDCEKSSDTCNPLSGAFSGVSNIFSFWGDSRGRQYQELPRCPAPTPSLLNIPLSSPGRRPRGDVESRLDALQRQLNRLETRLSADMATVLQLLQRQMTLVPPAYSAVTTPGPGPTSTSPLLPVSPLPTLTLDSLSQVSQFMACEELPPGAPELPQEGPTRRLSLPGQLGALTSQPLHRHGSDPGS

First: O=C(CN1CCN(C(=O)c2c(F)cccc2F)CC1)Nc1ccccc1C(F)(F)F
Second: O=C(CNc1cccc(C(F)(F)F)c1)Nc1cccc(S(=O)(=O)N2CCCC2)c1
The “hERG current change (%, negative = inhibition) at 1uM” value of the first is lower: 3.09% for the first, 16.2% for the second.

First: O=C(Nc1ccc2c(c1)OCO2)Nc1ccccc1F
Second: COc1ccc(NC(C)=O)cc1NC(C)C(=O)Nc1ccccc1F (stereo not shown)
The “hERG current change (%, negative = inhibition) at 1uM” value of the first is lower: 9.14% for the first, 14.1% for the second.

First: Cc1cc(NC(=O)Cc2ccsc2)ccc1Br
Second: Cc1ccc(C(=O)/C=C\Nc2ccc(C)c(C)c2)cc1
The “hERG current change (%, negative = inhibition) at 1uM” value of the first is higher: 14.1% for the first, -8.32% for the second.

Compared with `COc1cc(CCCN2C(=S)NC[C@@H]2CCCCN)cc(OC)c1OC`, `COc1ccc(/C=C2\CC/C(=C\c3ccc(OC)c(OC)c3)C2=O)cc1OC` is lower in “hERG current change (%, negative = inhibition) at 1uM” value: 12.9% for the first, 2.08% for the second.

Going from `CCOc1cccc2sc(=NC(=O)CCS(=O)(=O)c3ccc(F)cc3)n(C)c12` to `COc1ccccc1CNC(=O)C1CCC(CNS(=O)(=O)c2ccc(F)cc2)CC1` (stereo not shown), the “hERG current change (%, negative = inhibition) at 1uM” value rises from 4.6% to 9.65%.

Compared with `CCOC(=O)C1CCN(C(=O)c2ccco2)CC1`, `CCO[C@@H]1OC(C(=O)N2CCOCC2)=C[C@H](C)[C@H]1CCCO` is higher in “hERG current change (%, negative = inhibition) at 1uM” value: 11.5% for the first, 14.6% for the second.

Going from `CCOC(=O)COc1cc(Br)c(/C=N/Nc2ccccc2)cc1OC` to `CCOC(=O)Cn1ccc(-c2ccccc2)c(C#N)c1=O`, the “hERG current change (%, negative = inhibition) at 1uM” value rises from 3.72% to 17.2%.

First: Cc1nn(C)c(C)c1S(=O)(=O)N1CCC(C(=O)NC2CCCCCC2)CC1
Second: O=C(NCCOc1ccc(F)cc1)C1CCN(S(=O)(=O)c2ccccc2)CC1
The “hERG current change (%, negative = inhibition) at 1uM” value of the first is higher: 13.3% for the first, -4.22% for the second.

Going from `O=c1[nH]c2ccc(S(=O)(=O)N3CCN(Cc4ccccc4)CC3)cc2[nH]c1=O` to `Cc1ccc(S(=O)(=O)N2CCN(C(=O)NCc3ccc(C(=O)O)cc3)CC2)cc1`, the “hERG current change (%, negative = inhibition) at 1uM” value rises from 3.32% to 6.3%.

Compared with `O=C(Nc1ccc(N2CCOCC2)cc1)c1ccc2c(c1)OCO2`, `COc1ccc(N2CCOCC2)c(NC(=O)c2cccc3ccccc23)c1` is lower in “hERG current change (%, negative = inhibition) at 1uM” value: 16.7% for the first, 13.3% for the second.

First: COc1cc(/C=C2\NC(=S)N(C)C2=O)ccc1OCc1ccccc1F
Second: O=C(O)c1nn(CCSc2ccccc2F)c(=O)c2ccccc12
The “hERG current change (%, negative = inhibition) at 1uM” value of the first is higher: 6.67% for the first, -2.2% for the second.

Compared with `COc1ccc(Cc2nc3ccc(C(=O)N4CCCC4)cc3o2)cc1`, `COc1ccc(-n2ncc3c2CC(C)(C)CC3NC(=O)c2oc(C)cc2C)cc1` (stereo not shown) is higher in “hERG current change (%, negative = inhibition) at 1uM” value: 8.3% for the first, 16.2% for the second.

First: O=c1c2ccccc2nc(/C=C/c2c[nH]c3ccccc23)n1CCO
Second: O=C(NCCNC(=O)c1ccccc1O)c1ccccc1O
The “hERG current change (%, negative = inhibition) at 1uM” value of the first is higher: 18.5% for the first, 15.7% for the second.

Compared with `CCN(CC)S(=O)(=O)c1cc(C(=O)Nc2ccc(Cl)cn2)ccc1C`, `CN(CCOc1ccc(Cl)cc1)CC(=O)Nc1ccc(OC(F)F)cc1` is lower in “hERG current change (%, negative = inhibition) at 1uM” value: -4.67% for the first, -39% for the second.

First: O=C(Nc1nc(-c2cccs2)cs1)c1cccc(S(=O)(=O)N2CCCCCC2)c1
Second: O=C(c1cc2ccccc2oc1=O)N(Cc1cccs1)CC1CCCO1 (stereo not shown)
The “hERG current change (%, negative = inhibition) at 1uM” value of the first is higher: 15.5% for the first, 10.6% for the second.

Going from `OCCN1CCN(c2ncnc3nc[nH]c23)CC1` to `Cc1ccccc1CN1CCC(n2nccc2NC(=O)CCOc2ccccc2)CC1`, the “hERG current change (%, negative = inhibition) at 1uM” value falls from 9.59% to -5.06%.

First: Cc1ccc(N(C)C(=O)CN(C)S(=O)(=O)c2ccc3c(c2)n(C)c(=O)c(=O)n3C)cc1
Second: COc1ccc(NC(=O)CN(C)C(=O)CSCc2ccc(C)cc2)cc1
The “hERG current change (%, negative = inhibition) at 1uM” value of the first is lower: -2.86% for the first, 14.3% for the second.

Going from `Cn1ccnc1-c1nnn(-c2ccc(Cl)c(Cl)c2)n1` to `Cn1nc([N+](=O)[O-])nc1Sc1nnc(-c2ccccc2)o1`, the “hERG current change (%, negative = inhibition) at 1uM” value falls from 15% to -0.0317%.

Going from `Cc1cc(O)c(/C=N/Nc2ccccc2Cl)c(=O)o1` to `CCOc1ccccc1NC(=O)C1CC(=O)n2ncnc2N1` (stereo not shown), the “hERG current change (%, negative = inhibition) at 1uM” value falls from 2.65% to -6.73%.

First: C=CCNC(=O)COc1ccccc1C#N
Second: CC(C)NC(=O)c1cccc(Br)c1
The “hERG current change (%, negative = inhibition) at 1uM” value of the first is lower: -7.66% for the first, 9.26% for the second.

Compared with `CC(Sc1nc(-c2ccco2)nc2c1c(=O)n(C)c(=O)n2C)C(=O)O` (stereo not shown), `COc1ccc(-c2cc(C(F)(F)F)n3nc(C(=O)Nc4c(C)n(C)n(-c5ccccc5)c4=O)c(Cl)c3n2)cc1` is higher in “hERG current change (%, negative = inhibition) at 1uM” value: 7.48% for the first, 19.9% for the second.

Going from `O=C(Nc1nnc(-c2ccccc2SCc2ccccc2F)s1)Nc1ccccc1F` to `CC(C)c1ccc(-c2nc3ccccc3s2)cc1`, the “hERG current change (%, negative = inhibition) at 1uM” value rises from 4.17% to 12.6%.

Going from `CCC1CCc2c(sc(NC(=O)c3cnccn3)c2C(N)=O)C1` (stereo not shown) to `CCc1c(C)sc(NC(=O)c2cc(C(C)C)on2)c1C#N`, the “hERG current change (%, negative = inhibition) at 1uM” value falls from 14.6% to 11.1%.

Compared with `CN(Cc1ccco1)C(=O)C(Cc1ccccc1)NS(=O)(=O)c1ccc2c(c1)CCC(=O)N2` (stereo not shown), `CN1C(=O)C(C)(C)c2cc(S(=O)(=O)NCC3CCC(C(=O)NCc4ccc(F)cc4)CC3)ccc21` (stereo not shown) is lower in “hERG current change (%, negative = inhibition) at 1uM” value: -12% for the first, -17.3% for the second.

First: Cc1cc(C)cc(Nc2ncc3c(n2)CCCC3=O)c1
Second: Cc1nnc(SCc2cc(=O)n3[nH]cnc3n2)s1
The “hERG current change (%, negative = inhibition) at 1uM” value of the first is higher: 6.58% for the first, -0.582% for the second.

First: CC(C)Oc1ccc(CNC(=O)CCC(=O)N2CC(C)Sc3ccccc32)cc1 (stereo not shown)
Second: CCCCOc1ccc(OCCNC(=O)C2CCCN2C(=O)Nc2ccccc2)cc1 (stereo not shown)
The “hERG current change (%, negative = inhibition) at 1uM” value of the first is lower: -0.0173% for the first, 10.6% for the second.

First: COC(=O)c1ccc(CSc2ncn[nH]2)o1
Second: CC1(C)NC(=O)N(CC(=O)OCC(=O)Nc2cccc(F)c2)C1=O
The “hERG current change (%, negative = inhibition) at 1uM” value of the first is higher: 7.19% for the first, 3.89% for the second.

Going from `CCCCOCCCN1C(C)=CC(=C2C(=O)NC(=S)NC2=O)C=C1C` to `O=c1oc(CCCO)cc2ccc(C#Cc3ccsc3)cc12`, the “hERG current change (%, negative = inhibition) at 1uM” value falls from 5.5% to -2.43%.

Compared with `COc1ccc(/C=N/NC(=O)c2ccc3c(c2)OCO3)c(C(=O)O)c1OC`, `CC1C(=O)CCN(C(C)(C)C)C1C.Cl` (stereo not shown) is lower in “hERG current change (%, negative = inhibition) at 1uM” value: 12.7% for the first, 5.02% for the second.
